Data reported in a compilation of properties of binary mixtures (doi:10.1021/acs.jced.2c00677).
Some of these densities may be calculated back from excess volumes.

Assay: xn = mol fraction of the nth substance listed
Details: 100 kPa

COCC[N+]1(C)CCCC1.O=S(=O)([N-]S(=O)(=O)C(F)(F)F)C(F)(F)F + CO
mass density [kg/m3]
Details	x1 = 0.1	x1 = 0.2001	x1 = 0.3003	x1 = 0.3999	x1 = 0.5008	x1 = 0.6	x1 = 0.6991	x1 = 0.8003	x1 = 0.9002
288.15 K	1098.7	1230.5	1304.9	1350.8	1383.6	1407.7	1425.7	1440.4	1452.1
293.15 K	1093.7	1225.6	1299.9	1345.9	–	–	–	1435.6	1447.3
298.15 K	1088.8	1220.6	1295	1341	1373.8	1398	–	1430.8	–
303.15 K	–	1215.6	1290.1	1336.1	1368.9	1393.2	1411.2	1426	1437.8
308.15 K	–	1210.7	1285.1	–	–	1388.4	1406.4	1421.3	1433.1
313.15 K	1073.9	–	1280.2	1326.3	1359.2	1383.6	1401.7	1416.6	1428.3
318.15 K	1068.9	–	1275.3	1321.4	1354.4	1378.8	–	1411.8	1423.7

CO + COCC[N+]1(C)CCCC1.O=S(=O)([N-]S(=O)(=O)C(F)(F)F)C(F)(F)F
x2 = 0
Details	mass density [kg/m3]
288.15 K	796
293.15 K	791.3
298.15 K	786.6
303.15 K	781.9
308.15 K	777.1
313.15 K	772.3
318.15 K	767.5
